# Data reported in article PMC4632185.
# Amino acid sequences for entries named in this document (tags omitted). A change or cut given only in a name is not applied to a line headed by its entry.
# UniProt Q8TDX7: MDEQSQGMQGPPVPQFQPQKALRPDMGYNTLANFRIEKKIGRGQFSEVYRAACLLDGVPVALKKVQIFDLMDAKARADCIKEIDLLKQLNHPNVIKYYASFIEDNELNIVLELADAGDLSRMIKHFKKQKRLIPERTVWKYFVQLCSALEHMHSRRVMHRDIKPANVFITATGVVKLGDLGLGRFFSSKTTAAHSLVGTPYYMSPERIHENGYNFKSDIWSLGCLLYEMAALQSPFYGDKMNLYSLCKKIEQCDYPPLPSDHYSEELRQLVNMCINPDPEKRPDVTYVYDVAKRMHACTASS
# Where a chain is given by its changes, count along the chain named. Results are given in words; binding and its absence hold for the method and conditions named. Some binding calls cover weakened binding; strength is not graded here. For some assays here: Sequences can lack the tags named with a protein.
# Key:
# [1] = molecular target: T1, GST-Nek9-CTD (aa 726–979) (human) (UniProt Q8TD19); test: pull-down; GST co-precipitation: 100 μg GST-Nek9 protein immobilised on glutathione sepharose-4B beads, incubated with 100 μg Nek7 in 500 μl for 1 h at 4 °C; 50 mM HEPES pH 7.5, 300 mM NaCl, 5% glycerol, 5 mM dithiothreitol, 0.05% Tween-20; Coomassie staining or immunoblot with α-His6; both …
# T1 sequence: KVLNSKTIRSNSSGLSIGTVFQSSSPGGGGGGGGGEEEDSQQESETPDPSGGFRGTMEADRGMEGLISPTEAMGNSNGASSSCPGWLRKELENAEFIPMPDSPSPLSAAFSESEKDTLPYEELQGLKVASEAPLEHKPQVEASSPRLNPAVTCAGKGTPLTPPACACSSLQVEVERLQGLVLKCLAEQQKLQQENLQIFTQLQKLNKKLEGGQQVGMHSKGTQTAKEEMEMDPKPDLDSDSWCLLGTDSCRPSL
# GST-Nek9 810–828 (human) = molecular target: T2, GST-Nek9 810–828 (human) (UniProt Q8TD19); test: as above
# T2 sequence: GWLRKELENAEFIPMPDSP
# [2] = molecular target: T3, GST-Nek9-CTD P825A (human) (UniProt Q8TD19); test: as above
# T3 sequence: T1 sequence with P100A
# [3] = molecular target: T4, GST-Nek9-CTD L816A (human) (UniProt Q8TD19); test: as above
# T4 sequence: T1 sequence with L91A
# [4] = molecular target: T5, GST-Nek9-CTD P809A (human) (UniProt Q8TD19); test: as above
# T5 sequence: T1 sequence with P84A
# [5] = molecular target: T6, GST-Nek9-CTD W811A (human) (UniProt Q8TD19); test: as above
# T6 sequence: T1 sequence with W86A
# [6] = molecular target: T7, GST-Nek9-CTD C808A (human) (UniProt Q8TD19); test: as above
# T7 sequence: T1 sequence with C83A
# [7] = molecular target: T8, GST-Nek9-CTD M824A (human) (UniProt Q8TD19); test: as above
# T8 sequence: T1 sequence with M99A
# [8] = molecular target: T9, GST-Nek9-CTD I822A (human) (UniProt Q8TD19); test: as above
# T9 sequence: T1 sequence with I97A
# [9] = molecular target: T10, GST-Nek9-CTD F821A (human) (UniProt Q8TD19); test: as above
# T10 sequence: T1 sequence with F96A
# [10] = molecular target: T11, GST-Nek9-CTD L812A (human) (UniProt Q8TD19); test: as above
# T11 sequence: T1 sequence with L87A
# [11] = molecular target: Nek7^Y97A, full length (human) (UniProt Q8TDX7); test: SEC; size-exclusion chromatography on purification (Superdex-200 16/60, 50 mM HEPES pH 7.5, 300 mM NaCl, 5% glycerol, 5 mM dithiothreitol); both purified
substance,measurement,setting,value
Nek7 L132D (from UniProt Q8TDX7 1-302) (enzyme),binding,[1],no binding (tested: 100 μg Nek7 in 500 μl buffer)
same,binding,GST-Nek9 810–828 (human),no binding (tested: 100 μg Nek7 in 500 μl buffer)
Nek7 R131A (from UniProt Q8TDX7 1-302) (enzyme),binding,[1],no binding (tested: 100 μg Nek7 in 500 μl buffer)
same,binding,GST-Nek9 810–828 (human),no binding (tested: 100 μg Nek7 in 500 μl buffer)
"Nek7-His6, full-length wild type, unphosphorylated (from UniProt Q8TDX7 1-302) (enzyme)",binding,[2],binds
same,binding,[3],no binding (tested: 100 μg Nek7 in 500 μl buffer)
same,binding,[4],no binding (tested: 100 μg Nek7 in 500 μl buffer)
same,binding,[5],no binding (tested: 100 μg Nek7 in 500 μl buffer)
same,binding,[6],binds
same,binding,[7],binds
same,binding,[8],no binding (tested: 100 μg Nek7 in 500 μl buffer)
same,binding,[9],no binding (tested: 100 μg Nek7 in 500 μl buffer)
same,binding,[10],no binding (tested: 100 μg Nek7 in 500 μl buffer)
"Nek7^Y97A, full length (from UniProt Q8TDX7 1-302) (enzyme)",binding,[11],no binding
